Experimental data from PubChem BioAssay AID652104 (National Center for Advancing Translational Sciences (NCATS), 2013).
In all, about 410,000 compounds went through this assay and about 7,200 (1.8%) were called active. The shares of active, inactive and inconclusive entries below differ from those in the screen. Calls follow the shape of the dose curve; as a rule, active = well fitted activation curve with a large enough effect; inconclusive = small, poorly fitted or top-dose-only effect, or another doubt; inactive = no such curve, though single readings can be large or run the other way. A potency beside an inconclusive call is a rough fit, not a confirmed value.

assay: qHTS of TDP-43 Inhibitors; conditions: TDP-43 expressing yeast growth rescue, BacTiter-Glo, 24 h; growth rescue (activation): at 46.1 µM (top of the series) unless noted; also: nearly all actives have a fitted effect of over 50% in size; as to growth rescue (activation): % of control where 0% means no effect
How it was run: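 Yeast expressing TDP-43 (pregrown in raffinose, seeded at OD600=0.02 in galactose medium) exposed to compounds 24 hr at 30 deg C. Growth read by BacTiter-Glo luminescence; rescue of toxicity appears as increased signal.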
Potency is read from the fitted curve at half-maximal effect; tags tell the direction and shape of the fitted curve.

Potency, active:
Oc1ccc(C2C[C@H]3CC[C@@H]2C3)cc1O (stereo partly drawn) 14.1 µM
O=C1C(=O)c2ccc(-c3ccccc3)cc2-c2ccccc21 3.55 µM
O=C(NC(=S)NNC(=O)c1cnccn1)c1ccc(Cl)cc1 3.16 µM
O=[N+]([O-])c1ccc(Sc2ccncn2)c([N+](=O)[O-])c1 35.5 µM
COc1ccc(/C=C(\C#N)c2nc3ccccc3n2C)c(OC)c1 20 µM
Cc1cc(O)c(NC(=O)c2cc([N+](=O)[O-])ccc2Cl)cc1C 14.1 µM
Cc1cc(N/N=C/c2ccc(O)c(C)c2O)nc(-c2ccccc2O)n1 10 µM
CCc1ccc(CNC(=O)c2c(C)oc3ncn(CC(C)C)c(=O)c23)cc1 25.1 µM
Cc1ccc(C(=O)Nc2cccc(NC(=O)c3ccc(C)o3)n2)o1 7.94 µM

Potency, inconclusive:
CCn1nc(C(=O)NCc2ccco2)c(Cl)c1Cl 0.501 µM [activator, full curve, poor fit]
Cc1ccccc1Nc1nc(N)nc(COC(=O)c2ccc3c(c2)OCCO3)n1 12.6 µM [activator, partial curve]
O=C(CCSCc1ccccc1F)NCc1ccc(F)cc1 12.6 µM [activator, single point]
COc1ccccc1NC(=O)CSC1=Nc2ccccc2C2=NC(CC(=O)NCc3cccs3)C(=O)N12 (stereo not drawn) 35.5 µM [activator, single point]
O=C(CSCc1c(Cl)cccc1Cl)Nc1ccc2c(c1)OCO2 2 µM [activator, full curve]
CCOc1ccc(OCC)c(NC(=O)Nc2ccc3c(c2)N(C)C(=O)CS3)c1 31.6 µM [activator, partial curve]
CC1C(=O)N2CCCc3cc(NC(=O)COc4ccc(Cl)cc4)cc1c32 (stereo not drawn) 17.8 µM [activator, single point]
O=C(CC(=O)c1ccccc1O)c1ccc(F)cc1 35.5 µM [activator, single point]
Cc1onc(-c2ccccc2)c1C(=O)NCCSCc1ccco1 20 µM [activator, partial curve, poor fit]
Cc1cccc[n+]1CC(=O)N1c2ccccc2Sc2ccccc21 7.08 µM [activator, partial curve]
COC(=O)c1ccc2nc(-c3ccc(OC)c(OC)c3)c(CC3CCCCC3)n2c1 35.5 µM [activator, partial curve]
CCOc1ccc(NC(=O)CCSc2ccc(C)cc2)cc1 6.31 µM [activator, partial curve]
Cc1ccc2cccc(Oc3ncnc4scc(-c5ccc(Cl)cc5)c34)c2n1 12.6 µM [activator, single point]
O=C1COc2ccc(-c3cc(-c4ccccc4)c4c(n3)-c3cc(Cl)ccc3OC4)cc2N1 5.01 µM [activator, partial curve, poor fit]
CCCCS(=O)(=O)c1nc(-c2ccc(Br)cc2)cc(-c2ccccc2)c1C#N 3.55 µM [activator, partial curve]
COc1ccc(N=Nc2ccc(O)c3ncccc23)cc1 3.55 µM [activator, partial curve]
Cc1cc(C(=O)NCc2csc(-c3ccccc3)n2)no1 8.91 µM [activator, partial curve]
Fc1ccc(-c2cn3cc(Cc4ccccc4)sc3n2)cc1 5.62 µM [activator, full curve, poor fit]
CC(C)c1ccc(NC2CCCN(C(=O)CC3CCCC3)C2)cc1 (stereo not drawn) 31.6 µM [activator, partial curve]
CCc1nnc(NC(=O)c2cc(Cl)ccn2)s1 31.6 µM [activator, single point]
CC1Cc2ccccc2N1CC(=O)Nc1ccc2c(c1)OCCCO2 (stereo not drawn) 11.2 µM [activator, partial curve]
O=C(NCc1ccc2c(c1)OCO2)c1ccc(CSCc2ccc(Cl)cc2)o1 14.1 µM [activator, single point]
O=C(Nc1cccc(F)c1F)C1CCN(c2ncccn2)CC1 8.91 µM [activator, partial curve]
COC(=O)N1CCCCC1c1cc(C(=O)NCc2ccc(Cl)c(Cl)c2)no1 (stereo not drawn) 35.5 µM [activator, partial curve, poor fit]
O=C(NCc1ccccc1)/C(=C/c1ccc(OC(F)F)cc1)c1ccccc1 22.4 µM [activator, partial curve]
Cc1cc(NC(=O)CCC(=O)N(c2ccc(F)cc2)C(C(=O)NC2CCCC2)c2ccncc2)no1 (stereo not drawn) 7.08 µM [activator, partial curve, poor fit]
Fc1ccc(CCNC(=S)Nc2ccc(F)c(Cl)c2)cc1 11.2 µM [activator, partial curve, poor fit]
Cc1ccc(C)c(N2CCN(C(=O)c3cc(S(=O)(=O)N4CCCCCC4)cn3C)CC2)c1 10 µM [activator, partial curve]
CCN(CC)S(=O)(=O)c1ccc2oc(C(=O)NCc3ccccc3OC)c(C)c2c1 35.5 µM [activator, partial curve, poor fit]
O=S(=O)(N/N=C/c1c(F)cccc1Cl)c1ccccc1 11.2 µM [activator, partial curve]
O=C(CSc1ccc2c(c1)OCCO2)Nc1ccc2c(c1)OCO2 11.2 µM [activator, single point]
CC1=C(C(=O)N2CCCCCC2)CC(CC(=O)NCCc2ccccn2)C(=O)N1CCCN1CCCC1=O (stereo not drawn) 0.148 µM [activator, full curve, poor fit]
Cc1ccc(Nc2nnc(SCC3CCCCO3)s2)cc1 (stereo not drawn) 6.31 µM [activator, partial curve]
S=C(Nc1ccc(Cl)cc1)Nc1ccc2c(c1)OCCO2 17.8 µM [activator, partial curve, poor fit]
CCCc1cc(C(=O)NCc2ccc(OC)cc2)no1 22.4 µM [activator, partial curve]
CCN(Cc1ccccc1)C(=O)c1sc2nc3n(c(=O)c2c1C)CCCC3 11.2 µM [activator, partial curve]
Cc1cccc(CSc2ncnc3nc[nH]c23)c1 35.5 µM [activator, single point]
Cc1ccc(F)c(NC(=O)c2c(-c3ccccc3)noc2C)c1 3.16 µM [activator, full curve, poor fit]
Cc1ccc(N=Nc2c(C)[nH][nH]c2=O)c(C)c1 8.91 µM [activator, partial curve]
Cc1ccccc1NC(=O)c1ccc(Cl)c(S(=O)(=O)N2CCCCCC2)c1 15.8 µM [activator, single point]
CCc1ccccc1Nc1ccc(C(=O)O)cc1N 35.5 µM [activator, single point]
COc1ccc(OC)c(NC(=O)C2CC(C)=C(C)CC2C(=O)O)c1 (stereo not drawn) 35.5 µM [activator, partial curve, poor fit]
O=C(CCl)N(c1ccccc1)C1CCCCC1 17.8 µM [activator, single point]
O=C(C1CCCN(c2ncnc3c2nc2n3CCCCC2)C1)N1CCN(c2ccccc2)CC1 (stereo not drawn) 6.31 µM [activator, single point]
CC1=C(C(=O)Nc2ccc(Cl)cc2)C(c2ccc(C(F)(F)F)cc2)n2nnnc2N1 (stereo not drawn) 12.6 µM [activator, single point]
O=C1CC(N2CCN(c3ccccc3)CC2)C(=O)N1c1ccc2c(c1)OCCO2 (stereo not drawn) 3.16 µM [activator, single point]

Growth rescue (activation), inactive:
COc1ccc(CNC(=O)c2ccc(CNS(=O)(=O)c3ccc(F)cc3)cc2)cc1 -12.9%
COc1ccc(C(=O)Nc2ccc(N3CCOCC3)cc2)cc1OC -17.9%
O=C(Nc1ccc2c(c1)OCO2)c1ccc(Cl)cc1Cl 15.9%
Cc1nc(NC(=O)/C=C/c2ccccc2)sc1C(=O)Nc1cccc(Cl)c1 16.5%
O=C(COC(=O)c1ccc2ncsc2c1)Nc1ncc(Cl)cc1Cl -20.4%
N/C(=N\OC(=O)c1ccc(F)cc1)c1ccccc1 -79.8%
CCOc1ccc(CNS(=O)(=O)c2ccc(-c3coc(C)n3)cc2)cc1OC 29.2%
CCCCN(C)CCCNC(=O)Cn1ncc2c3ccccc3n(Cc3cc(C)ccc3C)c2c1=O 0.114%
COc1cccc(C2CC(c3ccc(C)cc3)Nc3nc(N)nn32)c1 (stereo not drawn) 8.68%
O=S(=O)(c1cccc(F)c1)N1CCC(Oc2ccc(-n3cnnn3)cc2)CC1 16.9%
CCCNC(=O)C1(C)CCN(C(=O)c2ccc3snnc3c2)C1 (stereo not drawn) 12.4%
C#CCOCCOCCOCCNc1nc(N2CCN(C(=O)CCCCCCCCCCNC(=O)[C@@H](CCSC)n3cc(CCO)nn3)CC2)nc(N2CCN(C(=O)CCCCCCCCCCNC(=O)[C@@H]([C@H](C)O)n3cc(C)nn3)CC2)n1 -4.92%
COc1ccc2nc(-c3ccccc3)[nH]c2c1 18.5%
